Laboratory results as given in paper PMC4336329 (PLoS ONE, 2015).
The whole screen tested about 310,000 compounds, of which about 2,200 (0.71%) showed an effect of 50% or more. The effect is printed as a negative number. The list shows a part of the results.

These compounds were tested against human ether-à-go-go-related gene (hERG) potassium channel (human, UniProt Q12809) (assay: primary screen, population patch clamp on CHO cells stably expressing hERG).
Sequence of human ether-à-go-go-related gene (hERG) potassium channel (Q12809 whole entry, looked up): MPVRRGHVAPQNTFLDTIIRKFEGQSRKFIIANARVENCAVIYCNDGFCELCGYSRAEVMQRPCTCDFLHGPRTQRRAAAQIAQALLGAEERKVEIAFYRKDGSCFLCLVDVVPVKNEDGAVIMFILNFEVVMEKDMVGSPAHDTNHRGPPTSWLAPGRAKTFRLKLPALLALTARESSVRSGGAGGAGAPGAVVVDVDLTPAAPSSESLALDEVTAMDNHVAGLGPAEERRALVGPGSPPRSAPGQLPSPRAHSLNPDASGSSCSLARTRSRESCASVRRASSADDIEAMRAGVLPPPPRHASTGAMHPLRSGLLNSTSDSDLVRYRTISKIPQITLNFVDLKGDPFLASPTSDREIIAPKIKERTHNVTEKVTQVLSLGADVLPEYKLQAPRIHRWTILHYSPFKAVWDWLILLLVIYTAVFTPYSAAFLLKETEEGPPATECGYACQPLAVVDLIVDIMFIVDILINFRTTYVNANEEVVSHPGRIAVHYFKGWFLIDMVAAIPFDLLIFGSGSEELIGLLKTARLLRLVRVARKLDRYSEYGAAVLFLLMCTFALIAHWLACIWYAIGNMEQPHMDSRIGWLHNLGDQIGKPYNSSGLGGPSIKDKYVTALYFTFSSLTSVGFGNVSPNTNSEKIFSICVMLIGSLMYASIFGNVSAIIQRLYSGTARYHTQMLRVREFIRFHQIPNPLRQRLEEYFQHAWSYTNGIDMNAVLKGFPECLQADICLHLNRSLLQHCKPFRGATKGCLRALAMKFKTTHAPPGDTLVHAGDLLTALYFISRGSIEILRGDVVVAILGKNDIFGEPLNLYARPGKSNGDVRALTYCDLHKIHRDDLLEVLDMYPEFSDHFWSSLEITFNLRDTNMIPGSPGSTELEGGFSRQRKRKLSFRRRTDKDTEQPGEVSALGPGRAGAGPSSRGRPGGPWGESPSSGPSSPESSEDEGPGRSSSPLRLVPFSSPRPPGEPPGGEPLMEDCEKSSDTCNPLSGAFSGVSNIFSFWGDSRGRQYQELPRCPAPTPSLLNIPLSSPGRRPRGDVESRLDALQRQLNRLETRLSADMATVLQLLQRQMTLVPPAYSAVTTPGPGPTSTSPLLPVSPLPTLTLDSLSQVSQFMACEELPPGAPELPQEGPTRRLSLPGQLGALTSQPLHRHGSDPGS

Structure (SMILES) | hERG current change (%, negative = inhibition) at 1uM [%]
Cc1ccc(NC(=O)CCC(=O)NNC(=O)NC2CCCCC2)c(C)c1 | -2.65
CCOC(=O)C[C@H]1c2cc(F)ccc2S(=O)(=O)N1Cc1ccc(OC)cc1 | 8.74
Cc1cc(C(=O)N/N=C/C(Cl)=C/c2ccccc2)c(C)o1 | 18.2
O=C(NC(=S)Nc1ccccn1)c1cccc([N+](=O)[O-])c1 | 9.86
O=C(NCCS(=O)(=O)NCCCc1ccccc1)c1ccccc1 | 9.44
COc1ccccc1NC(=O)c1c(C)nn(-c2ccccc2)c1Cl | 10.9
CCCCN1Cc2c(nc3cc(-c4ccco4)[nH]n3c2=O)C1=O | 8.46
CCC1(c2ccccc2)NC(=O)N(CC(=O)Nc2cc(S(=O)(=O)N3CCCCC3)ccc2OC(C)C)C1=O (stereo not drawn) | 9.04
COc1ccc(CN(Cc2ccc(OC)cc2)C(=O)c2cccs2)cc1 | -1.17
CCOC(=O)c1cnc2ccc(OC)cc2c1Nc1ccc2c(c1)OCCO2 | 11.1
O=C(Nc1ccnn1C1CCN(C(=O)CCc2ccc(F)cc2)CC1)C1CCOC1 (stereo not drawn) | 0.0845
CC1(C)Cc2nc3oc4c(=S)nc[nH]c4c3cc2CO1 | 8.76
Cc1ccc(NC(=O)c2cnc(SCC(=O)NCC3CCCO3)n(C)c2=O)cc1 (stereo not drawn) | -0.201
O=C(c1ccccc1F)N1CCN(c2ccc([N+](=O)[O-])cc2-n2cccc2)CC1 | 8.49
COc1ccc(S(=O)(=O)NCC2CCCN(CC(C)(C)C)C2)cc1 (stereo not drawn) | 2.32
CCc1ncc(/C=C2\C(=O)Nc3ccccc32)[nH]1 | 11.8
O=C(CC(c1ccccc1)c1ccccc1O)NCc1ccccc1 (stereo not drawn) | 10.1
O=C(COc1ccc(Cl)cc1)NCc1nnc(SCC(=O)NC2CCCC2)o1 | -1.65
CC(=O)c1sc2nc(C)c3c(c2c1N)CCCC3 | 6.7

Structure (SMILES) | hERG current change (%, negative = inhibition) at 1uM [%]
CCSc1nnc(NC(=O)NC2CCCCC2)s1 | 10.9
O=C(NCCCN1CCCC1=O)Nc1ccc(F)c(Cl)c1 | 8.01
Oc1ccc(N=Nc2n[nH]c(-c3ccc(Br)cc3)n2)cc1 | 8.59
COC(=O)c1ccc(NC(=O)c2c(C(=O)Nc3ccccc3)sc3nc(C)cc(=O)n23)cc1 | 11.8
Cn1c(=O)c2c(nc(NN=C3CCCC3)n2C)n(C)c1=O | 12.7
CC(C)Oc1cccc(-c2nnc(SCC(=O)Nc3ccc4c(c3)OCCO4)n2N)c1 | -2.59
CCCCCc1ccc(-c2nnc(N)s2)cc1 | 13.2
COc1cc(CN2CCSCC2)c([N+](=O)[O-])cc1OC | 11.7
CCCCn1c(N)c(N(CCC(C)C)C(=O)CC2CCCC2)c(=O)[nH]c1=O | 12.4
CN1/C(=C\C(=O)COC(=O)CNC(=O)c2ccc3ccccc3c2)C(C)(C)c2ccccc21 | 5.56
Cc1cc(C)nc(N2CCN(c3ccc(F)cc3)CC2)n1 | 14.4
NC(=O)C1CCN(C2=C(NS(=O)(=O)c3ccc(Cl)cc3)C(=O)c3ccccc3C2=O)CC1 | -11.9
COc1ccc(S(=O)(=O)n2c([N+](=O)[O-])cnc2C)cc1OC | 7.42
CCN1CCN(CC(=O)Nc2ccc(N(C)C)cc2)CC1.O=C(O)C(=O)O | 8.45
CCn1c2ccccc2c2cc(NS(=O)(=O)c3ccc(C)cc3)ccc21 | 10
COc1ccc2[nH]c(C(=O)NCc3ccc4c(c3)OCO4)cc2c1 | 11.2
Cc1ccccc1-n1c(=O)c2ccccc2n(CC(=O)NCc2ccco2)c1=O | 3.89
O=C(CSc1nnc(-c2cccnc2)o1)Nc1ccc(Br)cc1 | 15.1
COc1ccc(Oc2nc3ccccc3n3cccc23)cc1 | 7.42

Structure (SMILES) | hERG current change (%, negative = inhibition) at 1uM [%]
Cc1ccc(Cl)c(OCC(=O)Nc2sc(C)c(C)c2C#N)c1 | 14.8
COc1ccc(C2CC(c3ccc4ccccc4c3)=NN2C(=O)COC(=O)C2CCC(=O)N2)cc1 (stereo not drawn) | 6.91
Cc1cccc(C(C)C)c1NC(=O)COC(=O)CCN1C(=O)C2CC=CCC2C1=O (stereo not drawn) | 6.45
C=C1N(c2ccc(Cl)cc2)C(=O)OC1(C)C | 7.14
Cc1ccc(NS(=O)(=O)N2CCOCC2)cc1Cl | -4.43
COc1ccc(NS(=O)(=O)c2ccc3nc(COc4cccc5ccccc45)[nH]c3c2)cc1 | 11.5
CC(=O)OCCn1c(Br)nc2c1c(=O)[nH]c(=O)n2C | 6.02
O=C(OCC(=O)c1ccc[nH]1)c1ccc([N+](=O)[O-])cc1 | 14.8
Cc1ccc(S(=O)(=O)/C(C#N)=C/c2c(N3CCC(C(N)=O)CC3)nc3ccccn3c2=O)cc1 | 1.76
CCCCC(c1nnnn1CCOC)N1CCN(CC)CC1.Cl (stereo not drawn) | 15.5
COc1ccc(N2CCN(C(=O)c3ccc4c(c3)OCO4)CC2)cc1 | -2.77
CC(=O)N1CC(=O)Nc2ccc(F)cc2C1c1ccccc1 (stereo not drawn) | 6.17
Cc1cccc(-n2c(SCc3ccc([N+](=O)[O-])cc3)nnc2-c2c[nH]c3ccccc23)c1 | 15.8
COc1cc(C(=O)Nc2ccncc2)cc(OC)c1OC | 3.65
Cc1ccc(C2=NCCn3c2c2ccc(C(F)(F)F)cc2[n+]3[O-])cc1 | 6.16
C=CCn1c(C)cc(C(=O)CSc2nnc(NCc3ccccc3)s2)c1C | 4.17
COC(=O)c1ccc(Oc2ccc(S(=O)(=O)N3CCCCC3)cc2N)cc1 | 10.8
CCCN1C2CCCC1CC(NC(C)=O)C2 (stereo not drawn) | 20.3
CCOc1cc(NC(=O)c2ccco2)c(OCC)cc1NC(=O)CCC(=O)NCc1cccnc1 | -3.74
